Screen size: about 310,000 compounds; about 14,000 (4.5%) showed an effect of 50% or more. The effect is printed as a negative number. The list shows a part of the results.
Each compound was assayed against human ether-à-go-go-related gene (hERG) potassium channel (human, UniProt Q12809) (assay: primary screen, population patch clamp on CHO cells stably expressing hERG).
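Note: peak tail current of the secondary pulse compared with the same well before compound.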

human ether-à-go-go-related gene (hERG) potassium channel, sequence (Q12809 whole entry, looked up): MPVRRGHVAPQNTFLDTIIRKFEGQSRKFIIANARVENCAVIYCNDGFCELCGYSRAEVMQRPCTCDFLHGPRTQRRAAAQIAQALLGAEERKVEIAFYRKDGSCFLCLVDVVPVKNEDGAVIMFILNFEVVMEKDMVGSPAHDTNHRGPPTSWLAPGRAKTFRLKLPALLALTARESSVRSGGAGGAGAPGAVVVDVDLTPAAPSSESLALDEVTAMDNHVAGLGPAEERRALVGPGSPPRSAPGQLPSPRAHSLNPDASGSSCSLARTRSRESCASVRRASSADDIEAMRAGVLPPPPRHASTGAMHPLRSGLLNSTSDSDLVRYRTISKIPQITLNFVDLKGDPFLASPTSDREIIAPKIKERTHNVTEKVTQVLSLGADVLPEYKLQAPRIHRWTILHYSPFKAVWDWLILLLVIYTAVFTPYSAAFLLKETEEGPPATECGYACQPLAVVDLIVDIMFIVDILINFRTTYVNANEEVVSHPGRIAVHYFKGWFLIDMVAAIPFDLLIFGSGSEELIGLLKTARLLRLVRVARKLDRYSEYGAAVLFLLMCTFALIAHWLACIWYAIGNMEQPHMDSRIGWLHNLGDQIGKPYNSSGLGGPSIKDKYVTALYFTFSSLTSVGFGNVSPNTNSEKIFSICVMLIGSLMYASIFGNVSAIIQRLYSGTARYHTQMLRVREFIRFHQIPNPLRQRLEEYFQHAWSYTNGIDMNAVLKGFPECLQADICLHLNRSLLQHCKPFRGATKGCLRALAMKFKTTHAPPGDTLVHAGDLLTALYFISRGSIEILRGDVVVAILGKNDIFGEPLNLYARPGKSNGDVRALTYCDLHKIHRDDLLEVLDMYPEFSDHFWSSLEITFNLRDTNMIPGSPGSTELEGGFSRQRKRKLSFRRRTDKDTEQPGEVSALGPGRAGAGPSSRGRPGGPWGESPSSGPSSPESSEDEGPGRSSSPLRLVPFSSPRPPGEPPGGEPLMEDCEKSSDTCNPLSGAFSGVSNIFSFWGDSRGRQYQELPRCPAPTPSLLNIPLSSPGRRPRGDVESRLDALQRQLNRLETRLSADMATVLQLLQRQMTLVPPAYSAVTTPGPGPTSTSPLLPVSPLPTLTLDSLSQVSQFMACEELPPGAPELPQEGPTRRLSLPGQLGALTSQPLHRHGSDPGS

| SMILES | hERG current change (%, negative = inhibition) at 10uM |
| --- | --- |
| CCOC(=O)N1CCN(C(=O)/C=C/c2ccc(OC)cc2)CC1 | -17.8% |
| CCNC(=O)c1sc(=S)n(CC)c1N | 6.7% |
| COc1ccc(NC(=O)C2=Cc3ccccc3OC2)cc1 | 3.35% |
| COC(=O)COc1ccc(S(=O)(=O)NCCC2=CCCCC2)cc1 | -7.12% |
| COC(=O)c1ccc(Sc2ccc(F)cc2)c(N)c1 | 5.2% |
| CCCc1nc(SCC(=O)N2CCN(c3ccccc3)CC2)c2c(=O)n(C)c(=O)n(C)c2n1 | 5.67% |
| C[C@H]1O[C@H](O[C@H]2[C@H](O)[C@@H](O)[C@@H](O[C@H]3[C@H](O)[C@@H](O)C(O)O[C@@H]3CO)O[C@@H]2CO)[C@H](O)[C@@H](O)[C@@H]1N[C@H]1C=C(CO)[C@@H](O)[C@H](O)[C@H]1O (some centres unmarked) | -4.27% |
| O=C(NC1CCCCC1)c1ccc(NS(=O)(=O)c2cccc3cccnc23)cc1 | 16.3% |
| CSc1ccc2[nH]c(=O)cc(C)c2c1 | -1.46% |
| COc1ccc(NC(=O)Cn2c(=O)n(CC(=O)NCc3ccco3)c(=O)c3ccccc32)cc1 | 20% |
| CC(C)n1cc(C(=O)N2CCCC(N3CCN(c4ccc(F)cc4)CC3)C2)cn1 (centres unmarked) | -34.9% |
| Cc1ccc2c(c1)c1c3n2CCN(CC(O)CNC(C)C)C3CCC1.Cl.O (centres unmarked) | -11.4% |
| CC(C)NS(=O)(=O)c1ccc(CCC(=O)N2CCOCC2)cc1 | 2.25% |
| CN1CCN(Cc2c(C#N)c3ccccc3n2C)CC1 | -33.6% |
| Cc1cnc([N+](=O)[O-])n1CCOC(=O)NC(=O)c1c(F)cccc1F | 13.7% |
| Cc1ccccc1CNC(=O)C(=O)NCC1OCCCN1S(=O)(=O)c1cccs1 (centres unmarked) | 9.97% |
| COc1ccc(/C=C/c2nc(C)c(-c3ccccc3)c(=O)[nH]2)cc1OC | 12.1% |
| COC(CNC(=O)c1ccc2c(c1)ncn2-c1cc(C)cc(C)c1)OC | -22.5% |
| CC(CN1CCCCC1)OC(=O)COc1ccc(Cl)cc1.Cl (centres unmarked) | 19.9% |
| Cc1cccc(C)c1NC(=O)CN(C)CC(=O)c1c(N)n(Cc2ccccc2)c(=O)n(C)c1=O | 10.6% |
| CCOCCn1c(N2CCN(c3ccc(OC)cc3)CC2)nc2c1c(=O)n(C)c(=O)n2C | -26.8% |
| CCOC(=O)C(O)C1CCc2c([nH]c3ccc(C)cc23)C1=O (centres unmarked) | -5.97% |
| C#CCOCCOCCOCCNc1nc(N2CCN(C(=O)[C@H](CCC(=O)O)n3cc(C(N)CO)nn3)CC2)nc(N2CCN(C(=O)[C@H](Cc3ccc(O)cc3)n3cc(C(N)[C@H](C)CC)nn3)CC2)n1.Cl (some centres unmarked) | 9.89% |
